Reference: the supplement of paper PMC10126150
Values marked as one replicate rest on one cluster of the flow cell; about a third of the high ones do not repeat.

Test system: ATP
Test: switch fluorescence ratio, 500 uM ATP over buffer (Cy3 cluster intensity, sum of 5 cycles each) (fold (ratio)); higher = stronger signal-on switching upon ATP binding; sequences stand for … in TCGTCGGCAGCGTCAGATGTGTATAAGAGACAGTTTTTTTTTTTTTTTTTTTTTTTTT…TC
Details: aptamer strand: ATP DNA aptamer (quencher-CACCTGGGGGAGTATTGCGGAGGAAGG + anchor), 100 nM annealed; ATP concentration: 500 uM; one replicate
Summary of the method: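 Cy3-labelled switching-strand clusters on a modified Illumina MiSeq flow-cell were annealed to 100 nM quencher-labelled ATP aptamer, imaged in selection buffer, then imaged after 15 min with 500 uM ATP at 22 °C. Five buffer/ATP cycles ran, with NaOH stripping and re-annealing between them. The fluorescence ratio is summed target-cycle over summed buffer-cycle Cy3 intensity per cluster, averaged per switch-domain sequence. Clusters outside 100-1000 RFU were excluded.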
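Note: ATP exposure 15 min at 22 °C before imaging.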

Row | Sequence | switch fluorescence ratio
1 | ACGGTACTCG | 1.24
2 | TTGCGTGTCG | 1
3 | TGGATCTTG | 1.01
4 | TATGGCGTTT | 1.01
5 | ATAATCATAC | 1.06
6 | ATACACAGAG | 1.02
7 | GGGACCTGGT | 1.06
8 | GCTCAGAGGG | 1
9 | CTACTCAACG | 1.2
10 | ATGGGCTACT | 0.961
11 | TGTTGAGCGC | 0.981
12 | AAACATTGTT | 0.971
13 | TTTGTGCACT | 1.02
14 | TTTACCAGG | 1.2
15 | ATGCCTCCC | 1.14
16 | GAATGTTCTA | 1.01
17 | ATCCGGGGCC | 1
18 | ACATTGATCC | 1.05
19 | GGTTCGGCTC | 1.04
20 | TAGGCGGAC | 1.05
21 | GCTTTGCGGC | 1.02
22 | AGGTAGGCCC | 0.993
23 | CGAAGGTACA | 1.08
24 | GGGTTGAC | 0.989
25 | CATTCCACTG | 1.05
26 | CTGGATTCAC | 1.03

Row | Sequence | switch fluorescence ratio
27 | GGCTGAACAG | 1.01
28 | ATTGAGTGTA | 1.02
29 | TGAATTAAGC | 1.05
30 | AGTCAGTTAG | 1.02
31 | CTAGTCCCGT | 1.01
32 | CCGTCGACTG | 1.01
33 | CGGTCAGCGG | 1
34 | CGTGCATACG | 1.04
35 | CCGGTGAATA | 1.3
36 | CGCTTGGTTC | 0.996
37 | GGTGTTCTTG | 1.01
38 | GTTATGTCGG | 0.965
39 | TCGTCAAATG | 0.994
40 | TACCCCCTAT | 1.19
41 | GTCTGGGTTA | 0.986
42 | CGTTTCGGAA | 1.03
43 | AATGTGTGGA | 1.07
44 | GCAATACAT | 5.94
45 | TCAAAGTGGT | 1
46 | GTAGGGAGTA | 1
47 | GACCAGTGGG | 1.04
48 | TCGTAAACAA | 1.02
49 | CGACGACCGT | 1.08
50 | GCATGAGAG | 0.957
51 | TACTGCGAGG | 0.994
52 | CAATTACTGC | 1.02

Row | Sequence | switch fluorescence ratio
53 | TGGCCCGCTG | 1.03
54 | ATGGCATATG | 1.02
55 | ACAGCGCCGT | 1.03
56 | GCTCCGAATG | 4.97
57 | CAAAGAGAGC | 1.01
58 | GGCCAACTTG | 1
59 | GTCTCCGGAC | 1.17
60 | ATCGAATTAA | 0.966
61 | GCGATAGATA | 0.98
62 | ATTTTAGTGA | 1.04
63 | ATATTCACTG | 1.02
64 | CACGCGTTAG | 1.01
65 | CGTCGTTGGG | 1.1
66 | TACCTTTGAT | 1.07
67 | GGCCGAACGG | 1.04
68 | GGTTGTCCGC | 1.03
69 | GCTGGGGAGT | 1.02
70 | AACTCTAGAG | 0.947
71 | AACGCAGGTT | 1.01
72 | TCAGACCA | 1.01
73 | CCGTCTACTT | 1.07
74 | ACCCCAAACG | 1.15
75 | CCATGCTAAG | 1.02
76 | TGGCGAGATT | 1.04
77 | AAAAGACCCA | 1.02
78 | GAAAGGGCGA | 0.932

Row | Sequence | switch fluorescence ratio
79 | AGGTTATCTT | 0.998
80 | CTACAACACG | 1.2
81 | AGAGAAGGTG | 1.11
82 | GTATTTCTGG | 0.97
83 | AGCGCACTAG | 1.16
84 | ATCTATTATA | 1.02
85 | TGGTAGGCAC | 0.985
86 | ACTCCCCTGA | 2.1
87 | TATTATGTCT | 0.993
88 | TCAGGCCCTG | 0.992
89 | TGGACGCATT | 2.17
90 | TGTGCGCTGG | 0.991
91 | GCACTGTATA | 1.2
92 | CTTTTTGTTC | 0.988
93 | ACCGGAAAAG | 1.03
94 | TGTTTCCTAG | 1.04
95 | CTGAGTAGTA | 1
96 | CGCTAGACAT | 1
97 | CAGTATCTTG | 1.01
98 | ATTAAACCTC | 1.18
99 | CCGCTTGTCT | 1.05
100 | GGGACGTGTA | 1.01
101 | TAATGTGT | 0.994
102 | AGCCCCTGGA | 1.02
103 | GCGCAGATTT | 1
104 | TGGGGACACA | 1.08

Row | Sequence | switch fluorescence ratio
105 | CAGGCCCCGG | 0.996
106 | AAATCTCGTG | 1
107 | AGTACCACC | 1.19
108 | TCCAAACGTC | 0.89
109 | CTAATATGTA | 1.01
110 | GTATAGAATG | 1.05
111 | TCGGACATTA | 0.983
112 | CTACTACTG | 1.04
113 | GTGATCTACT | 1.02
114 | GGTTCGGCGT | 1.1
115 | CTGAGAGGCG | 0.964
116 | ACTGTTGTTC | 0.972
117 | AGTCGGACAC | 1.02
118 | AACTAAAGTG | 0.933
119 | CGGCGTAGGA | 1.17
120 | CGTAAAAAAA | 1.08
121 | GCAAGTATAA | 1.03
122 | ACATTCTG | 1.02
123 | CGACCCTTTC | 1.51
124 | CTATGGGCGT | 0.983
125 | GGCCCCTG | 1.01
126 | CGTACCACCA | 1.12
127 | TCGGGTCAAA | 1.03
128 | TCTAAAAAAT | 0.947
129 | ATCGCCCTCG | 0.993
130 | TCTGATGCTG | 1.01

Row | Sequence | switch fluorescence ratio
131 | GCCGTTTAGA | 1.01
132 | GATACGGACC | 1.59
133 | ATAAAGTATC | 0.955
134 | CCGCAGGCCC | 4.13
135 | CTAGCCTGCC | 0.983
136 | ACACGAGGGC | 0.983
137 | TGTTTCACCT | 1.08
138 | AAGGGCTGG | 1.06
139 | CGCCTAATGG | 1.07
140 | TGATTAGGAG | 1.01
141 | CTCAAAGCCC | 1.03
142 | AATGTCCGAC | 1.08
143 | CGCGACATAT | 1.1
144 | GCCTCACATT | 0.966
145 | CCCCGGGGCG | 1.07
146 | GCGCGGCTGA | 0.962
147 | TTCTTATGGG | 0.997
148 | TAACCCAGCT | 1.05
149 | GAGAATTTCG | 1.01
150 | GCAATTAAC | 4.14
151 | GGGTGTGAGC | 1.03
152 | CTCAGAAAGA | 1.03
153 | GCTTGAGTCC | 1.01
154 | AGTAGAGGTA | 1.01
155 | GTGATACCAC | 1.02
156 | TTAGAGTTA | 0.995

Row | Sequence | switch fluorescence ratio
157 | TGTCAGAACC | 0.985
158 | CGCTAGTGCA | 0.983
159 | AGGAAGACAG | 0.988
160 | TTTGCAGACG | 1.05
161 | GGAGGCAATT | 1.79
162 | GATAATCGAC | 1.02
163 | GTGCTCTGCT | 0.998
164 | AATTGGATCA | 0.984
165 | ACAAAAGCGA | 0.949
166 | AAGATGCCAG | 1.02
167 | GTTGGAGAAT | 0.995
168 | AGCTACAAGC | 1.05
169 | CGGTGCAGTA | 0.997
170 | CTTAGTTAAG | 0.991
171 | TTAGACTAAG | 0.986
172 | CCGAAATGTT | 1.06
173 | CCTTTTGGA | 1.03
174 | GATGCGAAGG | 0.999
175 | GTGACCGCCG | 1.06
176 | TATTGTCCAA | 0.967
177 | GATAAATAGA | 0.99
178 | AGACAGATTT | 1.01
179 | ATATGTAATG | 0.999
180 | AGCGGAGGGC | 0.99
181 | ATACGGGCGG | 1.04
182 | ATGCCGGCCG | 1.04

Row | Sequence | switch fluorescence ratio
183 | ATGCACGGGA | 1.08
184 | TGCCCAGTAG | 1.17
185 | AAAACAGTTG | 1.05
186 | GAGTCGTCTG | 0.986
187 | GCTGTACATA | 1.04
188 | TATATTGTTT | 1.02
189 | ATAATACTCG | 1.15
190 | GCATAGTATG | 1.02
191 | GATCATGGTC | 1.03
192 | AGCTCCACGG | 1.16
193 | GGACGGCGTG | 0.933
194 | GCCTATCCAG | 1.03
195 | GTGGTCAGAC | 0.955
196 | GGTGTCTATA | 0.996
197 | GCGATTGTAC | 1.27
198 | GCGGGTCTAC | 1.02
199 | AAGGTGAACA | 1
200 | TCTGGCAGGT | 1.01
201 | GTTGCCACTT | 0.978
